Measurements: the supplement of paper PMC8728848
Some of the results follow.

Legend:
Assay in all cases: glycan array binding signal (z-score within array); higher = stronger binding
Details in all cases: glycan notation: IUPAC condensed, linker removed
[1] = biological target: GlcNAc(b1-4)GlcNAc(b1-4)GlcNAc(b1-4)GlcNAc(b1-4)GlcNAc
In short: (§1)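 Glycan array data were curated from 3228 arrays in the Consortium for Functional Glycomics database and kept only where the protein sequence was available. Glycan names were converted to IUPAC-condensed notation, and columns mapping to the same glycan were averaged. The binding signal is a within-array Z-score, averaged across arrays of the same protein sequence at different concentrations or buffers and across linkers. Negative Z-scores can be read as non-binding.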

[2] = biological target: GlcNAc(b1-4)GlcNAc(b1-4)GlcNAc(b1-4)GlcNAc(b1-4)GlcNAc(b1-4)GlcNAc
In short: as §1

[3] = biological target: GlcNAc(b1-4)[GlcNAc(b1-6)]GalNAc
In short: as §1

[4] = biological target: GlcNAc(b1-6)Gal(b1-4)GlcNAc
In short: as §1

GlcNAc(b1-6)GalNAc = biological target: GlcNAc(b1-6)GalNAc
In short: as §1

[5] = biological target: GlcNAc6S(b1-3)Gal(b1-4)GlcNAc
In short: as §1

Kdn(a2-3)Gal(b1-3)GalNAc = biological target: Kdn(a2-3)Gal(b1-3)GalNAc
In short: as §1

Kdn(a2-3)Gal(b1-3)GlcNAc = biological target: Kdn(a2-3)Gal(b1-3)GlcNAc
In short: as §1

Kdn(a2-3)Gal(b1-4)Glc = biological target: Kdn(a2-3)Gal(b1-4)Glc
In short: as §1

Kdn(a2-3)Gal(b1-4)GlcNAc = biological target: Kdn(a2-3)Gal(b1-4)GlcNAc
In short: as §1

[6] = biological target: Kdn(a2-3)Gal(b1-4)[Fuc(a1-3)]GlcNAc
In short: as §1

Kdn(a2-6)Gal(b1-4)GlcNAc = biological target: Kdn(a2-6)Gal(b1-4)GlcNAc
In short: as §1

[7] = biological target: Man(a1-2)Man(a1-2)Man(a1-3)Man
In short: as §1

[8] = biological target: Man(a1-2)Man(a1-2)Man(a1-6)[Man(a1-3)]Man
In short: as §1

Man(a1-2)Man(a1-3)Man = biological target: Man(a1-2)Man(a1-3)Man
In short: as §1

[9] = biological target: Man(a1-2)Man(a1-3)[Man(a1-2)Man(a1-6)]Man
In short: as §1

[10] = biological target: Man(a1-2)Man(a1-3)[Man(a1-2)Man(a1-6)]Man(a1-6)[Man(a1-2)Man(a1-2)Man(a1-3)]Man
In short: as §1

[11] = biological target: Man(a1-2)Man(a1-3)[Man(a1-2)Man(a1-6)]Man(a1-6)[Man(a1-2)Man(a1-2)Man(a1-3)]Man(b1-4)GlcNAc(b1-4)GlcNAc
In short: as §1

[12] = biological target: Man(a1-2)Man(a1-3)[Man(a1-6)]Man(a1-6)[Man(a1-2)Man(a1-3)]Man(b1-4)GlcNAc(b1-4)GlcNAc
In short: as §1

[13] = biological target: Man(a1-2)Man(a1-6)[Man(a1-3)]Man(a1-6)[Man(a1-2)Man(a1-2)Man(a1-3)]Man
In short: as §1

[14] = biological target: Man(a1-2)Man(a1-6)[Man(a1-3)]Man(a1-6)[Man(a1-2)Man(a1-2)Man(a1-3)]Man(b1-4)GlcNAc(b1-4)GlcNAc
In short: as §1

Man(a1-3)[Man(a1-6)]Man = biological target: Man(a1-3)[Man(a1-6)]Man
In short: as §1

[15] = biological target: Man(a1-3)[Man(a1-6)]Man(a1-6)[Man(a1-2)Man(a1-3)]Man(b1-4)GlcNAc(b1-4)GlcNAc
In short: as §1

[16] = biological target: Man(a1-3)[Man(a1-6)]Man(a1-6)[Man(a1-3)]Man
In short: as §1

[17] = biological target: Man(a1-3)[Man(a1-6)]Man(a1-6)[Man(a1-3)]Man(b1-4)GlcNAc(b1-4)GlcNAc
In short: as §1

[18] = biological target: Man(a1-3)[Man(a1-6)]Man(b1-4)GlcNAc(b1-4)GlcNAc
In short: as §1

[19] = biological target: Man(a1-3)[Man(a1-6)]Man(b1-4)GlcNAc(b1-4)[Fuc(a1-6)]GlcNAc
In short: as §1

Man(a1-6)Man = biological target: Man(a1-6)Man
In short: as §1

Man(b1-4)GlcNAc = biological target: Man(b1-4)GlcNAc
In short: as §1

MurNAc(b1-4)GlcNAc = biological target: MurNAc(b1-4)GlcNAc
In short: as §1

Neu5Ac(a2-3)Gal = biological target: Neu5Ac(a2-3)Gal
In short: as §1

[20] = biological target: Neu5Ac(a2-3)Gal(b1-3)GalNAc
In short: as §1

[21] = biological target: Neu5Ac(a2-3)Gal(b1-3)GalNAc(b1-3)Gal(a1-4)Gal(b1-4)Glc
In short: as §1

[22] = biological target: Neu5Ac(a2-3)Gal(b1-3)GalNAc(b1-4)Gal(b1-4)Glc
In short: as §1

[23] = biological target: Neu5Ac(a2-3)Gal(b1-3)GalNAc(b1-4)[Neu5Ac(a2-3)]Gal(b1-4)Glc
In short: as §1

[24] = biological target: Neu5Ac(a2-3)Gal(b1-3)GalNAc(b1-4)[Neu5Ac(a2-8)Neu5Ac(a2-3)]Gal(b1-4)Glc
In short: as §1

[25] = biological target: Neu5Ac(a2-3)Gal(b1-3)GalNAc6S
In short: as §1

[26] = biological target: Neu5Ac(a2-3)Gal(b1-3)GlcNAc
In short: as §1

[27] = biological target: Neu5Ac(a2-3)Gal(b1-3)GlcNAc(b1-2)Man
In short: as §1

[28] = biological target: Neu5Ac(a2-3)Gal(b1-3)GlcNAc(b1-2)Man(a1-3)[GlcNAc(b1-4)][Neu5Ac(a2-3)Gal(b1-3)GlcNAc(b1-2)Man(a1-6)]Man(b1-4)GlcNAc(b1-4)GlcNAc
In short: as §1

[29] = biological target: Neu5Ac(a2-3)Gal(b1-3)GlcNAc(b1-2)Man(a1-3)[Neu5Ac(a2-3)Gal(b1-3)GlcNAc(b1-2)Man(a1-6)]Man(b1-4)GlcNAc(b1-4)GlcNAc
In short: as §1

[30] = biological target: Neu5Ac(a2-3)Gal(b1-3)GlcNAc(b1-2)[Neu5Ac(a2-3)Gal(b1-3)GlcNAc(b1-4)]Man(a1-6)[Neu5Ac(a2-3)Gal(b1-3)GlcNAc(b1-2)Man(a1-3)]Man(b1-4)GlcNAc(b1-4)GlcNAc
In short: as §1

[31] = biological target: Neu5Ac(a2-3)Gal(b1-3)GlcNAc(b1-3)Gal(b1-3)GlcNAc
In short: as §1

[32] = biological target: Neu5Ac(a2-3)Gal(b1-3)GlcNAc(b1-3)Gal(b1-4)GlcNAc
In short: as §1

[33] = biological target: Neu5Ac(a2-3)Gal(b1-3)GlcNAc(b1-3)GalNAc
In short: as §1

B1: DrGal9 (Danio rerio) (protein)
chain: MAFYQQPPYYNPRIPFSGPIQGGLQDGKSIIISGRVLPGANRFHVNLQCGSHSEANVALHFNPRYEDTDYVVNNSYLNRTWGSEERKYESPFAQGQTFTLQILVAQDKYKISTNGRHFMDYKHRIPFTQVDTVAVEGMVEVNSVAFQNPAGFIPPQAGYAPQYAVPPGCGFPAFPSAPNYTIPHKTVMNGGLHPGKNIVINGVVNPNAKSIIFNLCYRSGIAFHYNPRFDENVVVRNTNQMEKWGAEERFGGLPFHKGQPFQVTISCNPQHYNVFVNGKQEHTYKHRYTKLNDIDILEICGDLQLTSVQA
In the case of B1, the “glycan array binding signal (z-score)” value [1] is reported as -0.385, the “glycan array binding signal (z-score)” value [2] is reported as -0.427 and the “glycan array binding signal (z-score)” value [3] is reported as -0.334. For the same binder, the “glycan array binding signal (z-score)” value [4] was -0.366, the “glycan array binding signal (z-score)” value (GlcNAc(b1-6)GalNAc) was -0.382 and the “glycan array binding signal (z-score)” value [5] was -0.045. The “glycan array binding signal (z-score)” value (Kdn(a2-3)Gal(b1-3)GalNAc) was -0.386, the “glycan array binding signal (z-score)” value (Kdn(a2-3)Gal(b1-3)GlcNAc) was -0.132 and the “glycan array binding signal (z-score)” value (Kdn(a2-3)Gal(b1-4)Glc) was -0.395. For the same binder, the “glycan array binding signal (z-score)” value (Kdn(a2-3)Gal(b1-4)GlcNAc) was -0.184, the “glycan array binding signal (z-score)” value [6] was -0.383 and the “glycan array binding signal (z-score)” value (Kdn(a2-6)Gal(b1-4)GlcNAc) was -0.393. For the same binder, the “glycan array binding signal (z-score)” value [7] was -0.394, the “glycan array binding signal (z-score)” value [8] was -0.361 and the “glycan array binding signal (z-score)” value (Man(a1-2)Man(a1-3)Man) was -0.396. For the same binder, the “glycan array binding signal (z-score)” value [9] was -0.411, the “glycan array binding signal (z-score)” value [10] was -0.388 and the “glycan array binding signal (z-score)” value [11] was -0.404. The “glycan array binding signal (z-score)” value [12] was -0.416, the “glycan array binding signal (z-score)” value [13] was -0.422 and the “glycan array binding signal (z-score)” value [14] was -0.394. The “glycan array binding signal (z-score)” value (Man(a1-3)[Man(a1-6)]Man) was -0.349, the “glycan array binding signal (z-score)” value [15] was -0.376 and the “glycan array binding signal (z-score)” value [16] was -0.334. The “glycan array binding signal (z-score)” value [17] was -0.406, the “glycan array binding signal (z-score)” value [18] was -0.411 and the “glycan array binding signal (z-score)” value [19] was -0.394. The “glycan array binding signal (z-score)” value (Man(a1-6)Man) was -0.392, the “glycan array binding signal (z-score)” value (Man(b1-4)GlcNAc) was -0.382 and the “glycan array binding signal (z-score)” value (MurNAc(b1-4)GlcNAc) was -0.397. The “glycan array binding signal (z-score)” value (Neu5Ac(a2-3)Gal) was -0.392, the “glycan array binding signal (z-score)” value [20] was -0.307 and the “glycan array binding signal (z-score)” value [21] was 0.159. The “glycan array binding signal (z-score)” value [22] was -0.279, the “glycan array binding signal (z-score)” value [23] was -0.335 and the “glycan array binding signal (z-score)” value [24] was -0.396. The “glycan array binding signal (z-score)” value [25] was -0.385, the “glycan array binding signal (z-score)” value [26] was 0.058 and the “glycan array binding signal (z-score)” value [27] was 0.148. For the same binder, the “glycan array binding signal (z-score)” value [28] was -0.417, the “glycan array binding signal (z-score)” value [29] was -0.336 and the “glycan array binding signal (z-score)” value [30] was -0.149. The “glycan array binding signal (z-score)” value [31] was 0.238, the “glycan array binding signal (z-score)” value [32] was 0.595 and the “glycan array binding signal (z-score)” value [33] was -0.344.
